# Variants at the background level are over-represented here.
# B1: TPR 5TU (parent)
# chain: GGAUCUUCUCGAUCUAACAAAAAAGACAAAUCUGCCACAAAGCUUGAGAGCAUCUUCGGAUGCAGAGGCGGCAGCCUUCGGUGGCGCGAUAGCGCCAACGUUCUCAACUAUGACACGCAAAACGCGUGCUCCGUUGAAUGGAGUUUAUCAUG
# Variants of: B1
# Assay: polymerase ribozyme fitness, log enrichment relative to wild type (log ratio); higher = more active; in vitro selection for triplet polymerase activity
# In short: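 One round of in vitro selection, in triplicate, was applied to PCR-built, transcribed mutant libraries of each subunit of a heterodimeric triplet polymerase ribozyme. The steps were annealing with a biotinylated primer, partner subunit and triplets, incubation frozen at −7 °C, gel excision of extended constructs, streptavidin-bead capture and RT-PCR. Fitness is the logarithm, base 2, of genotype enrichment over wild-type enrichment from inverse-variance-weighted replicate averages of Illumina-sequenced inputs and outputs, keeping genotypes with ≥10 input reads and ≥1 read per output.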
row,Variant,polymerase ribozyme fitness (log ratio)
1,A26G G59A G84U G86C C105U C116G A138C,≤ -4.2
2,A26G G59U,-3.78
3,A26G G65A A66C G86A C87U A138U,≤ -4.2
4,A26G G67C A119C U134G U135A,≤ -4.2
5,A26G G68A,≤ -4.2
6,A26G G83C C96U A147U G152A,≤ -4.2
7,A26G G92U,-3.31
8,A26G U31G C43G C51A C75U C96U,≤ -4.2
9,A26G U33A C35G U56A G59A,≤ -4.2
10,A26G U44A C54U C72A U90A A115G C118U,≤ -4.2
11,A26G U44G,≤ -4.2
12,A26G U44G C51G G74U G86U,≤ -4.2
13,A26G U45A G67U,≤ -4.2
14,A26G U53A C85U A91G G133A U139A,≤ -4.2
15,A26G U53A U82G C96U A113C,≤ -4.2
16,A26G U55G A89C,≤ -4.2
17,A26G U56A C57U U78A G84C C125A,≤ -4.2
18,A26G U61A A89U G94A G133A U151G,≤ -4.2
19,A26G U77A C87U A89C,≤ -4.2
20,A26U A28C U56G C85U G133U G143C,≤ -4.2
21,A26U A28U A47C C57U A66G C96G,≤ -4.2

row,Variant,polymerase ribozyme fitness (log ratio)
1,A26U A28U G81C U90A,≤ -4.2
2,A26U A29C A47G A49U G59C G65A G117C U139G,≤ -4.2
3,A26U A29C C51U G59A A60G U134C,≤ -4.2
4,A26U A29G A41C C87A A115U,≤ -4.2
5,A26U A29U U55A A91U U148G,≤ -4.2
6,A26U A30G A60G G62C G92U G126A,≤ -4.2
7,A26U A30G C32U G58C,≤ -4.2
8,A26U A30U C85U G133C,≤ -4.2
9,A26U A37C A47G C85U U90A U145A U146C,≤ -4.2
10,A26U A39C A49C A106G U135C,≤ -4.2
11,A26U A39C A49G G128A A138G,≤ -4.2
12,A26U A39C C54U A91G A107C,≤ -4.2
13,A26U A39C U45A A60C U61G G83C U102C U111G,≤ -4.2
14,A26U A40C C76A G92C A121C,≤ -4.2
15,A26U A40C G46A A91U U101G C108U A138G,≤ -4.2
16,A26U A40U C76A U77C C93G G124A,≤ -4.2
17,A26U A41C G68C U78G U90C A91U A107U U109C C149G,≤ -4.2
18,A26U A41C G84C G140A,≤ -4.2
19,A26U A41C U44A G59A G126U G128A A137G,≤ -4.2
20,A26U A41G U53A U55A A91U,≤ -4.2
21,A26U A41U U61G A91U C93G U127A U130A A147C,≤ -4.2

row,Variant,polymerase ribozyme fitness (log ratio)
1,A26U A47C A49C G80C C85A A113G A150U,≤ -4.2
2,A26U A47G G48U U53A C69G C85U G128A C129A,≤ -4.2
3,A26U A49C,≤ -4.2
4,A26U A49C G67C G71A C99G,≤ -4.2
5,A26U A49C U56A G83U C85U,≤ -4.2
6,A26U A49G C75A A97G C108U,≤ -4.2
7,A26U A49G G58C C76G G81A G92U C149U,≤ -4.2
8,A26U A49G U101G A120G A147C,≤ -4.2
9,A26U A49U U53G U61C A66U G94U C123A,≤ -4.2
10,A26U A52C C96A,-3.2
11,A26U A52G C85U,-1.69
12,A26U A52G G74C U127A C132U U139C,≤ -4.2
13,A26U A52G U78A C103A,≤ -4.2
14,A26U A52U G92U A107G,≤ -4.2
15,A26U A64U C93A A106C A119G A138U,≤ -4.2
16,A26U A73G C85G C118A C125G,≤ -4.2
17,A26U A73U A91U C96G A137C,≤ -4.2
18,A26U A91G G140C C149A,≤ -4.2
19,A26U A91G U127C,≤ -4.2
20,A26U A97U A119G,-2.34
21,A26U C27A A47G G65U U78G C108U A115G,≤ -4.2

row,Variant,polymerase ribozyme fitness (log ratio)
1,A26U C27G C36G C85G,≤ -4.2
2,A26U C27G U55A G83A C125U,≤ -4.2
3,A26U C27U A28G A37C C38U A52G A73U C105U,≤ -4.2
4,A26U C27U G84A G88A U101A,≤ -4.2
5,A26U C27U G88A A106U,≤ -4.2
6,A26U C32G A52G U53A C54U C87U C95A G136A G140U,≤ -4.2
7,A26U C32G G86A C105U,≤ -4.2
8,A26U C32G U45C G50C U53G G84A C99U A137G,≤ -4.2
9,A26U C35A U104G A150C,≤ -4.2
10,A26U C35U C76A U78G,≤ -4.2
11,A26U C35U C87A G124C,≤ -4.2
12,A26U C36A U101A G143U U144A,≤ -4.2
13,A26U C36G U134A G143U U144C,≤ -4.2
14,A26U C36U G42U C95G A138G,≤ -4.2
15,A26U C36U U44A C57A G68C C118A U135G,≤ -4.2
16,A26U C38A U55A A91U C93U A121G C132U,≤ -4.2
17,A26U C38U C85A A91G U148A,≤ -4.2
18,A26U C43A A49G G58C C93U G112A,≤ -4.2
19,A26U C43U G80C G84U C93G U148A,≤ -4.2
20,A26U C43U U55A C95U,≤ -4.2
21,A26U C51U A64U C125U,≤ -4.2
